# Laboratory results as given in PubChem BioAssay AID1347434 (National Center for Advancing Translational Sciences (NCATS), 2020).
# Out of some 1,200 compounds screened, about 30 (2%) were called active. Not shown: some 23% with an inconclusive outcome. Calls follow the shape of the dose curve; as a rule, active = well fitted inhibition curve with a large enough effect; inconclusive = small, poorly fitted or top-dose-only effect; inactive = flat fitted curve, though single readings scatter. The list shows a part of the results.
# Target: Single-stranded DNA cytosine deaminase (Homo sapiens) (UniProt Q9GZX7)
# Assay: Confirmatory qHTS assay for inhibitors of Activation Induced Cytidine Deaminase (AID): AID signals
# Conditions: recombinant AID, FRET deamination/UDG coupled fluorescence, 4 h; series mostly up to 115 µM; activity, negative = inhibition: at the top concentration
# How it was run: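 Read 1 (AID) was measured at 540 ex/590 em after a 30 min NaOH step. The reaction was AID (1 uM, 4/3x stock) with UDG, compound at final 7.32 nM - 114 uM for 10 min, then DJC20/DJC23 substrate for 4 hr at room temperature. A UDG read at 560/665 serves as counterscreen.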
# % is scaled to controls: 0 for no effect and ±100 for the full control effect; potency is read from the fitted curve at half-maximal effect.
# Sequence of UniProt Q9GZX7 (Q9GZX7 whole entry, looked up): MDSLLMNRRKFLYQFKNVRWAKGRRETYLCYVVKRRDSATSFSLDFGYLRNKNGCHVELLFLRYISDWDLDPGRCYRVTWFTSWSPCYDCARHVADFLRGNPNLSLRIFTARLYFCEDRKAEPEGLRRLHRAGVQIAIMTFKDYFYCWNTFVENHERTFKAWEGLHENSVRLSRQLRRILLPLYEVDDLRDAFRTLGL
Compound,"activity, negative = inhibition",Potency
CCn1cc(S(=O)(=O)c2ccc(Cl)cc2)c(=O)c2cc(F)c(N3CCOCC3)cc21,inactive: -0.934%,
CC(C)c1ccc2c(c1)-c1ccccc1S(=O)(=O)N2CC(=O)N1CCCCC1,inactive: -10.8%,
Cc1c(Cl)cccc1-n1ncc(C(=O)NCc2cccs2)c1C1CCN(C(=O)OC(C)(C)C)CC1,inactive: -12.8%,
Cc1cccc(-c2nc(CSCC(=O)NCCc3ccc(Cl)cc3)c(C)o2)c1,inactive: -6.88%,
CN(C(=O)c1ccc2c(c1)N(Cc1ccccc1F)C(=O)c1ccccc1S2)C1CCCCC1,inactive: -18.7%,
CCc1ccc(OCC(=O)N(Cc2ccco2)Cc2ccco2)cc1,inactive: -14.7%,
Cc1ccc(C)c(CN2CCCN(Cc3cc(C)ccc3C)S2(=O)=O)c1,inactive: -7.69%,
COc1ccc(C(=O)N2CCc3cc(OC)c(OC)cc3C2COc2ccccc2OC)cc1 (stereo not given),inactive: -9.57%,
Cc1ccc(C)c(N2CCN(C(=O)c3cnn(C(C)(C)C)c3C3CCN(C(=O)OC(C)(C)C)CC3)CC2)c1,inactive: -13%,
CCN(CC)C(=O)c1ccc2c(c1)N(Cc1c(F)cccc1Cl)C(=O)c1ccccc1S2,inactive: -15.8%,
Cc1cc(C)cc(C(=O)NCCc2sc(-c3ccc(F)cc3)nc2C)c1,inactive: -3.51%,
CCCCN(CC)CCCNC(=O)c1cn(CC)c2ccc(S(=O)(=O)N3CCc4ccccc4C3)cc2c1=O,inactive: -21.8%,
CS(=O)(=O)N(Cc1ccccc1)c1ccc(C(=O)Nc2ccc(Cl)cc2)cc1,inactive: 10.2%,
Cc1cccc(Nc2nnc(-c3ccc(C)c(S(=O)(=O)N4CCN(C)CC4)c3)c3ccccc23)c1,inactive: -25.7%,
Cc1ccc(CN(Cc2ccco2)C(=O)COc2ccc(C)c(C)c2)cc1,inactive: -13.6%,
CN(C)c1ccc(Nc2ncnc3sc4c(c23)CCCC4)cc1,inactive: -1.26%,
Cc1ccc(C)c(CSc2nnc(C)n3c2cc2sccc23)c1,inactive: -16.7%,
Cc1ccc(C)c(N2CCN(CCCNC(=O)c3cnn(-c4ccc(F)cc4)c3C3CCN(C(=O)OC(C)(C)C)CC3)CC2)c1,inactive: -1.81%,
OCC1O[C@H]([S-])[C@H](O)[C@@H](O)[C@@H]1O.[Au+] (stereo not given in full),,active: 12.6 µM
CC(C)NC[C@H](O)c1ccc(O)c(O)c1,inactive: 8.25%,

Compound,"activity, negative = inhibition",Potency
CCOC(=O)c1cccc(NC(=O)c2oc3c(c2C)-c2nn(CC)cc2CC3)c1,inactive: 12.5%,
Cc1c(Cl)cccc1-n1ncc(C(=O)NC2CCCCC2)c1C1CCN(C(=O)OC(C)(C)C)CC1,inactive: -0.422%,
COc1ccc(OC)c(Nc2sc(C(=O)c3ccccc3)c(N)c2S(=O)(=O)c2ccccc2)c1,inactive: -2.04%,
CCN(CC)CCNC(=O)c1ccc2c(=O)n3nc(Nc4ccccc4OC)sc3nc2c1,inactive: -25.4%,
Cc1ccc(CN(Cc2ccco2)C(=O)c2ccc(OCC(C)C)cc2)cc1,inactive: -7.47%,
Cc1ccc(S(=O)(=O)Cc2ccc(C(=O)N3CCN(c4cccc(Cl)c4)CC3)o2)cc1,inactive: -16.7%,
CCOC(=O)c1cnc2c(ccc3ccccc32)c1Nc1ccc(N(C)C)cc1,inactive: -12.4%,
CCn1cc2c(n1)-c1c(oc(C(=O)Nc3ccc(Br)cc3F)c1C)CC2,inactive: -12.3%,
Cc1ccc(N(CC(=O)N2CCN(c3cc(C)ccc3C)CC2)S(=O)(=O)c2c(C)nn(C)c2C)cc1,inactive: -24.2%,
CCOc1ccc(CNC(=O)c2oc3c(c2C)-c2nn(Cc4cccc(Cl)c4)cc2CC3)cc1,inactive: 1.55%,
O=C(c1ccc2c(c1)N(Cc1ccc(Cl)cc1)C(=O)c1ccccc1S2(=O)=O)N1CCCC1,inactive: -6.84%,
Cc1ccc(N(C)C(=O)c2sc3nc4n(c(=O)c3c2C)CCCC4)cc1C,inactive: -29.1%,
CCCCN(CC)C(=O)CSc1nc2n[nH]c(C)c2c(=N)n1-c1ccc(CC)cc1,inactive: 9.27%,
COc1ccc(CNC(=O)Nc2ccc3c(c2)N(C)C(=O)c2ccccc2S3)cc1OC,inactive: -18.8%,
CC(=O)c1cccc(NC(=O)CC(c2ccc(C)cc2)N2Cc3ccccc3C2=O)c1 (stereo not given),inactive: -3.19%,
CCn1cc2c(n1)-c1c(oc(C(=O)Nc3cccc(C)c3C)c1C)CC2,inactive: 27.1%,
CCc1ccc(N(CC)C(=O)c2sc3nc4n(c(=O)c3c2C)CCCC4)cc1,inactive: -22.2%,
COc1ccc(Nc2ncc(C(=O)N3CCN(c4ccccc4OC)CC3)c3ccccc23)cc1,inactive: -3.41%,
Cc1ccc(CSc2cn(CCNC(=O)c3cccs3)c3ccccc23)cc1,inactive: 24%,
Cc1nc2nc(SCC(=O)NC3CCC(C)CC3)nn2c(C)c1Cc1ccccc1Cl (stereo not given),inactive: -16.5%,

Compound,"activity, negative = inhibition",Potency
CCC(NC(C)C)C(O)c1ccc(O)c(O)c1 (stereo not given),inactive: 9.38%,
Cc1cccc(-c2nnc(SCC(=O)N3CCCc4ccccc43)o2)c1,inactive: -23.7%,
CC(=O)c1ccc(C(=O)N(Cc2cccnc2)c2nc3c(Cl)cccc3s2)cc1,inactive: -9.63%,
O=C(c1cccc(Cl)c1)N(Cc1ccco1)Cc1ccccc1Cl,inactive: -11%,
O=C(NCCn1cc(SCc2cccc(F)c2)c2ccccc21)c1cccc(C(F)(F)F)c1,inactive: 2.49%,
Cc1ccc(N(Cc2cccs2)C(=O)c2ccccc2)cc1,inactive: -16.4%,
O=C(O)c1ccc(Nc2nc(-c3ccccc3)c3cc(Br)ccc3n2)cc1,inactive: -28.7%,
COc1ccc(-c2nc3ccccc3n2Cc2ccc(C(C)C)cc2)cc1,inactive: -14.1%,
Cc1ccc(Cl)cc1N1CCN(C(=O)c2cccn2-c2nnc(N3CCCCC3)s2)CC1,inactive: -17.3%,
COc1ccc(NC(=O)C(c2ccc(C)cc2)N(C)C(=O)Cc2cccs2)cc1 (stereo not given),inactive: -16%,
CC(C)c1ccc(S(=O)(=O)c2cnc(SCC(=O)Nc3cccc(C(F)(F)F)c3)nc2N)cc1,inactive: -5.26%,
Cc1cccc(Cn2c(SCc3ccc(C(=O)N4CCC(C)CC4)cc3)nc3ccncc32)c1,inactive: -29.7%,
CCOc1ccc(-c2nn(-c3ccccc3)cc2C2NC(=O)NC(C)=C2C(=O)OC(C)C)cc1C (stereo not given),inactive: -12.4%,
COc1cccc(CNC(=O)c2oc3ccc4c(c3c2C)C(=O)CC(C)(C)O4)c1OC,inactive: -14%,
COc1cccc(CNC(=O)c2ccc3c(Cl)c4c(nc3c2)CCCC4)c1,inactive: -15.9%,
CCC1CCCCN1C(=O)CSc1nc(-c2ccc(OC)cc2)cc(C(F)(F)F)n1 (stereo not given),inactive: -15.6%,
CCOc1ccc(NC(=O)CSc2nccn2-c2cccc(C)c2C)cc1,inactive: -11.4%,
Cc1ccc(Nc2nnc(-c3ccc(C)c(S(=O)(=O)N4CCN(C)CC4)c3)c3ccccc23)c(C)c1,inactive: -19.7%,
CCc1ccc(NC(=O)CSc2nccn2-c2cccc(C)c2C)cc1,inactive: -8.49%,
Cc1ccccc1OCc1ccc(-c2nc(C#N)c(N3CCN(C)CC3)o2)o1,inactive: -9.73%,
